Laboratory results from the supplement of paper PMC4604168 (melanoma cell lines).
Some of the results follow. Many values rest on one well or one pass, so single values are uncertain.

Key:
Assay in all cases: cell count relative to DMSO control; melanoma cells; higher = more viable cells
Details in all cases: library dose: low library concentration; 72 h
[1] = system: WM115
[2] = system: WM1716
[3] = system: WM1745
[4] = system: WM3526
[5] = system: WM3619
[6] = system: WM451Lu
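Further: cell number obtained by counting DAPI-stained nuclei in high-throughput microscope images with image analysis software, screen run in 1,536-well plates.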

SMILES	cell count [1] [%]	cell count [2] [%]	cell count [3] [%]	cell count [4] [%]	cell count [5] [%]	cell count [6] [%]
Cc1nc(Nc2ncc(C(=O)Nc3c(C)cccc3Cl)s2)cc(N2CCN(CCO)CC2)n1 [dasatanib] + Cn1c(Nc2ccc(C(F)(F)F)cc2)nc2cc(Oc3ccnc(-c4ncc(C(F)(F)F)[nH]4)c3)ccc21 [CHIR265] (first compound 0.004 µM, partner dose 0.08 µM)	46.9	68	65.9	64.6	71.2	52
C=CCn1c(=O)c2cnc(Nc3ccc(N4CCN(C)CC4)cc3)nc2n1-c1cccc(C(C)(C)O)n1 + Cc1cc([N+](=O)[O-])ccc1NS(=O)(=O)c1cc(Cl)ccc1Cl [FH535] (first compound 0.02 µM, partner dose 1 µM)	85.6	82.3	76.5	110	76.8	105
NC(=O)Nc1cc(-c2cccc(F)c2)sc1C(=O)N[C@H]1CCCNC1 + NCC(=O)Nc1ccc(-n2nc(C(F)(F)F)cc2-c2ccc3c(ccc4ccccc43)c2)cc1 [OSU03012] (first compound 0.02 µM, partner dose 1 µM)	82.3	89.4	110	43.2	79.2	54.5
C[C@]1(c2nc3c(C(N)=O)cccc3[nH]2)CCCN1 [Veliparib] + COc1cc2ncnc(Nc3ccc(Oc4ccccc4)cc3)c2cc1OC [SrcI1] (first compound 1.4 µM, partner dose 2 µM)	86.1	101	70.9	76.5	117	117
Cc1nc(Nc2ncc(C(=O)Nc3c(C)cccc3Cl)s2)cc(N2CCN(CCO)CC2)n1 [dasatanib] + c1cc(-c2cnn3cc(-c4ccc(OCCN5CCCCC5)cc4)cnc23)ccn1 [Dorsomorphin] (first compound 0.004 µM, partner dose 0.4 µM)	63.6	81.2	54.3	81.7	76	80
Cc1nc(Nc2ncc(C(=O)Nc3c(C)cccc3Cl)s2)cc(N2CCN(CCO)CC2)n1 [dasatanib] + C[C@]1(c2nc3c(C(N)=O)cccc3[nH]2)CCCN1 [Veliparib] (first compound 0.004 µM, partner dose 1.4 µM)	69.8	71.4	59.7	109	88.1	66.6
C[C@]1(c2nc3c(C(N)=O)cccc3[nH]2)CCCN1 [Veliparib] + c1cc(-c2cnn3cc(-c4ccc(OCCN5CCCCC5)cc4)cnc23)ccn1 [Dorsomorphin] (first compound 1.4 µM, partner dose 0.4 µM)	89.1	99.2	82.3	94	106	96.6
Cc1nc(Nc2ncc(C(=O)Nc3c(C)cccc3Cl)s2)cc(N2CCN(CCO)CC2)n1 [dasatanib] + Cn1cc(/C=C2\C(=O)Nc3cccnc32)c2ccccc21 [GW441756] (first compound 0.004 µM, partner dose 0.4 µM)	75.2	84.2	66	120	101	95
C[C@]1(c2nc3c(C(N)=O)cccc3[nH]2)CCCN1 [Veliparib] + O=S(=O)(c1ccccc1)N(CC(F)(F)F)c1ccc(C(O)(C(F)(F)F)C(F)(F)F)cc1 [T0901317] (first compound 1.4 µM, partner dose 1.4 µM)	75.9	74.8	73.3	85.1	86.8	90.7
C=CCn1c(=O)c2cnc(Nc3ccc(N4CCN(C)CC4)cc3)nc2n1-c1cccc(C(C)(C)O)n1 + CO[C@@H]1[C@H](N(C)C(=O)c2ccccc2)C[C@H]2O[C@]1(C)n1c3ccccc3c3c4c(c5c6ccccc6n2c5c31)C(=O)NC4 [Midostaurin] (first compound 0.02 µM, partner dose 0.08 µM)	58.6	53.7	55.9	79	77.4	94.5
C[C@]1(c2nc3c(C(N)=O)cccc3[nH]2)CCCN1 [Veliparib] + COc1cc(Nc2ncc(F)c(Nc3ccc4c(n3)NC(=O)C(C)(C)O4)n2)cc(OC)c1OC [Tamatinib] (first compound 1.4 µM, partner dose 0.4 µM)	69.2	89.8	73.8	66.8	123	104
Cc1nc(Nc2ncc(C(=O)Nc3c(C)cccc3Cl)s2)cc(N2CCN(CCO)CC2)n1 [dasatanib] + CN(NC(=O)CC(=O)NN(C)C(=S)c1ccccc1)C(=S)c1ccccc1 [STA4783] (first compound 0.004 µM, partner dose 0.006 µM)	52.6	59.4	36.7	86.1	59.6	67
CO[C@@H]1[C@H](N(C)C(=O)c2ccccc2)C[C@H]2O[C@]1(C)n1c3ccccc3c3c4c(c5c6ccccc6n2c5c31)C(=O)NC4 [Midostaurin] + CCCCCCCCCCCC1=C(O)C(=O)C=C(O)C1=O [Embelin] (first compound 0.08 µM, partner dose 1.2 µM)	101	96.8	77	109	125	99.4
C[C@]1(c2nc3c(C(N)=O)cccc3[nH]2)CCCN1 [Veliparib] + C[C@@H]1CCN(C(=O)CC#N)C[C@@H]1N(C)c1ncnc2[nH]ccc12 [CP690550] (first compound 1.4 µM, partner dose 1 µM)	87.6	83	72.4	103	86.5	92
NCC(=O)Nc1ccc(-n2nc(C(F)(F)F)cc2-c2ccc3c(ccc4ccccc43)c2)cc1 + COc1ccc(COc2ccc(Cc3cnc(N)nc3N)cc2OC)cc1 [GW2580] (first compound 1 µM, partner dose 1 µM)	85.6	109	86.6	55	119	63.3
NC(=O)Nc1cc(-c2cccc(F)c2)sc1C(=O)N[C@H]1CCCNC1 + CCCCCCCCCCCC1=C(O)C(=O)C=C(O)C1=O [Embelin] (first compound 0.02 µM, partner dose 1.2 µM)	110	98.2	95.6	92.5	119	87.4
NCC(=O)Nc1ccc(-n2nc(C(F)(F)F)cc2-c2ccc3c(ccc4ccccc43)c2)cc1 + COc1cc2c(Oc3ccc4[nH]c(C)cc4c3F)ncnc2cc1OCCCN1CCCC1 [cediranib] (first compound 1 µM, partner dose 0.4 µM)	80.1	95.4	95.4	46	110	54.7
NCC(=O)Nc1ccc(-n2nc(C(F)(F)F)cc2-c2ccc3c(ccc4ccccc43)c2)cc1 + COc1ccc(-c2ccc3c(N4CCOCC4)nc(N4C[C@@H](C)O[C@@H](C)C4)nc3n2)cc1CO [KU0063794] (first compound 1 µM, partner dose 0.02 µM)	110	104	92.7	49.1	111	73.8
Cc1nc(Nc2ncc(C(=O)Nc3c(C)cccc3Cl)s2)cc(N2CCN(CCO)CC2)n1 [dasatanib] + Cn1nnc2c(C(N)=O)ncn2c1=O [temozolomide] (first compound 0.004 µM, partner dose 2 µM)	81.8	67.5	78.6	98.4	106	87.9
CO[C@@H]1[C@H](N(C)C(=O)c2ccccc2)C[C@H]2O[C@]1(C)n1c3ccccc3c3c4c(c5c6ccccc6n2c5c31)C(=O)NC4 [Midostaurin] + O=C(O)c1ccc(-c2c[nH]c3ncc(-c4ccccc4)cc23)cc1C1CCCC1 [GSK650394] (first compound 0.08 µM, partner dose 0.16 µM)	89.1	84.8	93	83	99.8	87.6
Cc1nc(Nc2ncc(C(=O)Nc3c(C)cccc3Cl)s2)cc(N2CCN(CCO)CC2)n1 [dasatanib] + C=CCn1c(=O)c2cnc(Nc3ccc(N4CCN(C)CC4)cc3)nc2n1-c1cccc(C(C)(C)O)n1 [MK1775] (first compound 0.004 µM, partner dose 0.02 µM)	69.8	67	53.1	102	80	66.8
NC(=O)Nc1cc(-c2cccc(F)c2)sc1C(=O)N[C@H]1CCCNC1 + Oc1nc(-c2ccc(C(F)(F)F)cc2)nc2c1CSCC2 [XAV939] (first compound 0.02 µM, partner dose 2 µM)	90.1	65.1	51.3	73.7	46.9	94.5
Cc1nc(Nc2ncc(C(=O)Nc3c(C)cccc3Cl)s2)cc(N2CCN(CCO)CC2)n1 [dasatanib] + O=C(Nc1ccccc1)c1cc([N+](=O)[O-])ccc1Cl [GW9662] (first compound 0.004 µM, partner dose 2 µM)	77.9	84.8	67.4	103	104	41.7
